# Test results as given in the supplement of paper PMC8728848.
# The list shows a part of the results.
# B1: Epa3 (Candida glabrata), Q6VBI8_CANGB (protein)
# chain: MGSSHHHHHHSSGLVPRGSHMNDLGFSLFEKRELSSQNPFGYPIGCSPQDVAIIPGLTMELYSYPIVSGTPPNCYDASYVDPEYPRTGYLKRKMVGKSTGVTGNLNYKYSVEKACMVKYGNLPAGYNYNEPLTVSNFTMILYGYFKAQTTGLHTFFVNADDLLYINFGAGNAFDCCKREDSKTKLGEYVAYDIWHVDSSKNKVSLFLEKDLYYPIRMFFNNIGKDSSLDLSFSVNGATDQISDFSGYLYSVPDQPDTCPAHIGYDTTCR
# Assays:
# Experiment in all cases: glycan array binding signal (z-score within array); higher = stronger binding
# Settings in all cases: glycan notation: IUPAC condensed, linker removed
# [1] = biological target: Gal3S4S(b1-4)GlcNAc
# In short: (§1)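 Negative Z-scores can be read as non-binding. The Z-score is calculated within each array and then averaged across arrays of one protein sequence at different concentrations or buffers and across linkers. Arrays, 3228 in all, were curated from the Consortium for Functional Glycomics database and kept only where the protein sequence was available.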
# [2] = biological target: Gal3S6S(b1-4)GlcNAc
# In short: as §1
# [3] = biological target: Gal3S6S(b1-4)GlcNAc6S
# In short: as §1
# [4] = biological target: Gal4S(b1-4)GlcNAc
# In short: as §1
# [5] = biological target: Gal4S6S(b1-4)GlcNAc
# In short: as §1
# [6] = biological target: Gal6P(b1-4)GlcNAc
# In short: as §1
# [7] = biological target: Gal6S(b1-3)GlcNAc
# In short: as §1
# [8] = biological target: Gal6S(b1-3)GlcNAc6S
# In short: as §1
# [9] = biological target: Gal6S(b1-4)Glc
# In short: as §1
# [10] = biological target: Gal6S(b1-4)Glc6S
# In short: as §1
# [11] = biological target: Gal6S(b1-4)GlcNAc
# In short: as §1
# [12] = biological target: Gal6S(b1-4)GlcNAc6S
# In short: as §1
# [13] = biological target: GalNAc(a1-3)Gal
# In short: as §1
# [14] = biological target: GalNAc(a1-3)GalNAc
# In short: as §1
# [15] = biological target: GalNAc(a1-3)GalNAc(b1-3)Gal(a1-4)Gal(b1-4)Glc
# In short: as §1
# [16] = biological target: GalNAc(a1-3)GalNAc(b1-3)Gal(a1-4)Gal(b1-4)GlcNAc
# In short: as §1
# [17] = biological target: GalNAc(b1-3)Gal
# In short: as §1
# [18] = biological target: GalNAc(b1-3)Gal(a1-4)Gal(b1-4)GlcNAc
# In short: as §1
# [19] = biological target: GalNAc(b1-3)Gal(a1-4)Gal(b1-4)GlcNAc(b1-3)Gal(b1-4)Glc
# In short: as §1
# [20] = biological target: GalNAc(b1-3)Gal(a1-6)Gal(b1-4)Glc
# In short: as §1
# [21] = biological target: GalNAc(b1-3)GalNAc
# In short: as §1
# [22] = biological target: GalNAc(b1-3)GlcNAc
# In short: as §1
# [23] = biological target: GalNAc(b1-4)Gal(b1-4)Glc
# In short: as §1
# [24] = biological target: GalNAc(b1-4)GlcNAc
# In short: as §1
# [25] = biological target: GalNAc(b1-4)GlcNAc(b1-2)Man
# In short: as §1
# [26] = biological target: GalNAc(b1-4)GlcNAc(b1-2)Man(a1-3)[GalNAc(b1-4)GlcNAc(b1-2)Man(a1-6)]Man(b1-4)GlcNAc(b1-4)GlcNAc
# In short: as §1
# [27] = biological target: GalNAc(b1-4)GlcNAc(b1-3)GalNAc(b1-4)GlcNAc
# In short: as §1
# [28] = biological target: GalNAc(b1-4)GlcNAc6S
# In short: as §1
# [29] = biological target: GalNAc(b1-6)GalNAc
# In short: as §1
# [30] = biological target: GalNAc3S(b1-4)GlcNAc
# In short: as §1
# [31] = biological target: GalNAc3S(b1-4)GlcNAc3S
# In short: as §1
# [32] = biological target: GalNAc3S(b1-4)[Fuc(a1-3)]GlcNAc
# In short: as §1
# [33] = biological target: GalNAc4S6S(b1-4)GlcNAc
# In short: as §1
# [34] = biological target: GalNAc6S(b1-4)GlcNAc
# In short: as §1
# [35] = biological target: Glc(a1-4)Glc
# In short: as §1
# [36] = biological target: Glc(a1-4)Glc(a1-4)Glc(a1-4)Glc
# In short: as §1
# [37] = biological target: Glc(a1-6)Glc(a1-6)Glc
# In short: as §1
# [38] = biological target: Glc(a1-6)Glc(a1-6)Glc(a1-6)Glc
# In short: as §1
binder,measurement,setting,value
B1,glycan array binding signal (z-score),[1],0.01
same,glycan array binding signal (z-score),[2],-0.123
same,glycan array binding signal (z-score),[3],-0.106
same,glycan array binding signal (z-score),[4],-0.172
same,glycan array binding signal (z-score),[5],-0.088
same,glycan array binding signal (z-score),[6],-0.185
same,glycan array binding signal (z-score),[7],-0.145
same,glycan array binding signal (z-score),[8],-0.07
same,glycan array binding signal (z-score),[9],-0.251
same,glycan array binding signal (z-score),[10],0.114
same,glycan array binding signal (z-score),[11],-0.31
same,glycan array binding signal (z-score),[12],0.045
same,glycan array binding signal (z-score),[13],-0.141
same,glycan array binding signal (z-score),[14],-0.222
same,glycan array binding signal (z-score),[15],-0.375
same,glycan array binding signal (z-score),[16],-0.337
same,glycan array binding signal (z-score),[17],-0.241
same,glycan array binding signal (z-score),[18],-0.044
same,glycan array binding signal (z-score),[19],-0.166
same,glycan array binding signal (z-score),[20],-0.27
same,glycan array binding signal (z-score),[21],-0.13
same,glycan array binding signal (z-score),[22],-0.122
same,glycan array binding signal (z-score),[23],-0.183
same,glycan array binding signal (z-score),[24],0.034
same,glycan array binding signal (z-score),[25],-0.177
same,glycan array binding signal (z-score),[26],0.289
same,glycan array binding signal (z-score),[27],-0.292
same,glycan array binding signal (z-score),[28],-0.392
same,glycan array binding signal (z-score),[29],-0.16
same,glycan array binding signal (z-score),[30],-0.277
same,glycan array binding signal (z-score),[31],-0.232
same,glycan array binding signal (z-score),[32],-0.415
same,glycan array binding signal (z-score),[33],-0.292
same,glycan array binding signal (z-score),[34],-0.265
same,glycan array binding signal (z-score),[35],-0.246
same,glycan array binding signal (z-score),[36],-0.306
same,glycan array binding signal (z-score),[37],-0.123
same,glycan array binding signal (z-score),[38],-0.108
